From publication PMC4336329 (PLoS ONE, 2015)
The campaign covered roughly 310,000 compounds. About 14,000 (4.5%) showed an effect of 50% or more. Effects have a minus sign here. This is one part of the list.

What follows are compounds tested against human ether-à-go-go-related gene (hERG) potassium channel (human, UniProt Q12809) (assay: primary screen, population patch clamp on CHO cells stably expressing hERG).
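Also: peak tail current of the secondary pulse compared with the same well before compound.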

human ether-à-go-go-related gene (hERG) potassium channel, sequence (Q12809 whole entry, looked up): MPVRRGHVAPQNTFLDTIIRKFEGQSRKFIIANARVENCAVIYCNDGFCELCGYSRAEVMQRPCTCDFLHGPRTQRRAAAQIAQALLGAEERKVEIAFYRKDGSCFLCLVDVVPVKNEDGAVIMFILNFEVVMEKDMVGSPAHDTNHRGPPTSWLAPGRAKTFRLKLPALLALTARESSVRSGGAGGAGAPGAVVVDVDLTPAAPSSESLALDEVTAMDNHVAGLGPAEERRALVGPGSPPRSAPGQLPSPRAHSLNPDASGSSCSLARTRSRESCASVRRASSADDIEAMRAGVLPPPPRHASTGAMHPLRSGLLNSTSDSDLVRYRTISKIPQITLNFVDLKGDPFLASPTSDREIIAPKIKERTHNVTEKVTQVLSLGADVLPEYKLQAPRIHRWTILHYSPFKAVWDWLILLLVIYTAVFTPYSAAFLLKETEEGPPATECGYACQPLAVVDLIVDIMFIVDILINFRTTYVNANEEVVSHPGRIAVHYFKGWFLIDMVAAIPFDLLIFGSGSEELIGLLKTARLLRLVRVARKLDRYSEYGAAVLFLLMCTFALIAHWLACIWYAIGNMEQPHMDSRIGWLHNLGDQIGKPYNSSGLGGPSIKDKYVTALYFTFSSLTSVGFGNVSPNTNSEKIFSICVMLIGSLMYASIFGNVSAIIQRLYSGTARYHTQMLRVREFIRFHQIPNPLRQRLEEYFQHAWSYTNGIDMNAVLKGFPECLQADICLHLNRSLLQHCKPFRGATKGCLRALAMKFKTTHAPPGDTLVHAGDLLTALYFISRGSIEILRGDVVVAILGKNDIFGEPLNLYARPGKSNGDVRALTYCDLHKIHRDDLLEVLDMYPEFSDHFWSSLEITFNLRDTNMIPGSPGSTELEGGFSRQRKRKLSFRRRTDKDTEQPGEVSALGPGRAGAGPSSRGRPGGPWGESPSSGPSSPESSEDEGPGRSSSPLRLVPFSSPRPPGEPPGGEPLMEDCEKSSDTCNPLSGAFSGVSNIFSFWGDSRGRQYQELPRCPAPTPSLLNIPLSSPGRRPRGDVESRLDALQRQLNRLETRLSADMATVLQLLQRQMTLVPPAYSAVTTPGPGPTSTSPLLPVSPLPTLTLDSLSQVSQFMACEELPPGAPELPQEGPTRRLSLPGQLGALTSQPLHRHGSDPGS

Row | SMILES | hERG current change (%, negative = inhibition) at 10uM
1 | Cc1ccc(CSCCNC(=O)c2ccc(NS(C)(=O)=O)cc2)cc1 | -15.6%
2 | COc1ccc(-c2nnc(NC(=O)C3CCCN3S(=O)(=O)c3cccs3)o2)cc1 (stereo not drawn) | -3.47%
3 | CC(Oc1cccc(Cl)c1)C(=O)Nc1ccccc1N1CCCC1 (stereo not drawn) | -15.3%
4 | CCOC(=O)c1c(C)[nH]c(C)c1S(=O)(=O)N(C)CC(=O)N1CCN(c2ccc(OC)cc2)CC1 | -15.9%
5 | CCn1c(C)nc2cc(S(N)(=O)=O)ccc21 | 21.9%
6 | CCCOC(=O)c1ccc(NC(=O)CCC(=O)OCC)cc1 | 3%
7 | COc1cc(/C=N/O)cc(Br)c1OS(=O)(=O)c1ccc(C)cc1 | 0.747%
8 | COc1ccc(CCNCC(=O)Nc2ccc(C)c(S(=O)(=O)N(C)C)c2)cc1.O=C(O)C(=O)O | -35.2%
9 | COc1ccc(S(=O)(=O)N(C)C)cc1NS(=O)(=O)c1ccc(F)c(F)c1F | 9.39%
10 | COc1ccc(F)cc1S(=O)(=O)Nc1cccc(C(=O)O)c1 | -4.14%
11 | CCOC(=O)c1[nH]c(=O)[nH]c1CNc1ccccc1C#N | 12.8%
12 | COc1ccc(-c2nc(CS(=O)(=O)CC(=O)Nc3ccc(Cl)cc3)c(C)o2)cc1 | -2.99%
13 | COc1cccc(C2C(C(=O)/C=C/c3ccco3)=C(O)C(=O)N2CCN2CCOCC2)c1 (stereo not drawn) | 14.2%
14 | CNc1nc(CC(C)=O)ns1 | 12.7%
15 | COc1ccc(NC(=O)CSc2nnc3ccc(-c4ccncc4)nn23)cc1OC | -9.01%
16 | FC(F)(F)c1nnc2c(Sc3ccc(Cl)cc3)nc3ccccc3n12 | 13.5%
17 | Cc1ccc(C(C(=O)NC2CCCCC2)N(Cc2cccnc2)C(=O)c2csnn2)cc1 (stereo not drawn) | -21.7%
18 | CCOP(=O)(/C(C#N)=C(/O)c1ccccc1)c1ccccc1 (stereo not drawn) | 8.44%
19 | Nc1cc(=O)[nH]c(SCC(=O)Nc2cc(Cl)ccc2Cl)n1 | 6.95%
20 | O=c1c2ccccc2nc(SCc2nnc(-c3ccccc3Br)o2)n1-c1ccccc1 | -1.38%
21 | O=C(NCCc1c[nH]c2ccccc12)c1cc([N+](=O)[O-])cc([N+](=O)[O-])c1 | -0.209%
22 | COc1ccc2c(c1)c1nnc(SCC(=O)N3C(C)CCCC3C)nc1n2C (stereo not drawn) | -26%

Row | SMILES | hERG current change (%, negative = inhibition) at 10uM
23 | Cc1ccc(C)c(NC(=O)C(OC(=O)c2cnc(C)cn2)c2ccccc2)c1 (stereo not drawn) | 5.8%
24 | O=C(NCCc1ccccc1)c1ccc(NC(=O)c2cccnc2)cc1 | 14.2%
25 | Nc1ccc2nc(-c3cc(Cl)c(N)c(Cl)c3)[nH]c2c1 | -6.72%
26 | COc1cc(/C=N/NC(=O)c2cnn3c(C)cc(-c4ccccc4)nc23)ccc1O | -3.56%
27 | COCCN(C(=O)COC(=O)CCOc1ccccc1)c1c(N)n(Cc2ccccc2)c(=O)[nH]c1=O | 16.6%
28 | COc1ccc(NC(=O)CSCC(=O)Nc2nnc(C3CC3)s2)cc1 | 2.87%
29 | COc1ccc(CNC(=O)C(=O)NCCCn2ccnc2)cc1 | 23.4%
30 | COc1cc(C(=O)Nc2ccc(S(=O)(=O)N3CCOCC3)cc2)c([N+](=O)[O-])cc1OC | 19.4%
31 | O=C(CSC1=NCCS1)N1CCN(c2ccc(Cl)cc2)CC1 | -29.3%
32 | Cc1ccc(C(C(=O)NC2CCCCC2)N2CCC3(CC2)OCCO3)cc1 (stereo not drawn) | 10%
33 | Cc1ccc(S(=O)(=O)N(CC(=O)Nc2ccccc2)C(=O)N2CCN(C)CC2)cc1 | 10.3%
34 | CN(C)S(=O)(=O)c1ccc(Cl)c(NC(=O)COC(=O)c2cc(-c3ccccc3)nc3ccccc23)c1 | 12.1%
35 | COc1ccc(C(C(=O)NC2CCCC2)N(C(=O)c2ccoc2C)c2cc(C)cc(C)c2)cc1 (stereo not drawn) | -10.9%
36 | COc1ccccc1NC(=O)Cn1nnc(-c2ccccc2NS(=O)(=O)c2ccccc2)n1 | 0.108%
37 | Cc1cccc(N2CC(C(=O)Nc3nnc(SCCC4OCCO4)s3)CC2=O)c1 (stereo not drawn) | 6.28%
38 | O=C(C[n+]1ccc(/C=N/O)cc1)N1CCCCC1.[Cl-] | 9.49%
39 | COc1ccc(C(=O)Nc2ccccc2C(=O)N(Cc2ccco2)C(C(N)=O)C(C)C)cc1 (stereo not drawn) | 6.67%
40 | Cc1oc(-c2cccs2)nc1CN1CCN(Cc2ccc(F)c(F)c2)C(CCO)C1 (stereo not drawn) | -47.2%
41 | COc1cc(-c2nc(C(=O)NC3CCN(Cc4ccccc4)CC3)cc3c2[nH]c2ccccc23)cc(OC)c1OC | -59.6%
42 | N#Cc1c(Nc2ccc(Cl)cc2)s[nH]c1=O | -4.96%
43 | CCN(CC)CCNC(=S)Nc1ccc2nc(N3CCOCC3)cc(C)c2c1 | 11.7%
44 | CC(=O)N1c2ccccc2C(C)(C)C2CCC(C)CC21 (stereo not drawn) | -8.9%

Row | SMILES | hERG current change (%, negative = inhibition) at 10uM
45 | O=C(Nc1ccc(C(=O)O)cc1)/C(=C\c1ccco1)NC(=O)c1ccco1 | 21.3%
46 | Cn1c2c(c(=O)n(C)c1=O)C(c1cccc(F)c1)C(C#N)=C(N)O2 (stereo not drawn) | 17.7%
47 | C=CCn1c(Cc2cccs2)nnc1SC/C=C/c1ccccc1 | -17.7%
48 | CCN1CCN(CC(=O)N2c3ccccc3Sc3ccccc32)CC1 | 5.94%
49 | COc1ccc(NC(C)=O)cc1NC(=O)CSc1nnc(C2CCCCC2)n1N | 8.83%
50 | COc1ccc(NC(=O)c2ccsc2NC(C)=O)cc1 | 5.57%
51 | O=C(CSc1nnc(CNC(=O)c2c(F)cccc2Cl)o1)NC1CCCC1 | 15.4%
52 | O=C(CCCc1nc(-c2ccccc2Cl)no1)NC1CCCC1 | 5.52%
53 | Cn1nnnc1Sc1ccc([N+](=O)[O-])cc1Cl | -5.36%
54 | Cc1ccc(S(=O)(=O)NCc2ccc3c(c2)OCO3)cc1C | -10.4%
55 | O=C(c1cc2cc(Cl)ccc2oc1=O)N1CCN(c2ccccn2)CC1 | -6.18%
56 | Cc1ccc(C(=O)NCc2ccccn2)cc1NC1=NC2CS(=O)(=O)CC2S1 (stereo not drawn) | 21.5%
57 | COc1ccc(-c2cc3cc(OC)c(OC)cc3c(C)n2)cc1C | 2.93%
58 | CC1CCN(C(=O)CCNS(=O)(=O)c2ccc(Br)cc2)CC1 | -13.4%
59 | CC(C)N1C(=O)C2(OCCCO2)c2cc(Br)ccc21 | 29%
60 | CN(Cc1ccccc1)C(=O)c1[nH]cnc1C(=O)Nc1ccc(Cl)cc1 | -0.308%
61 | COc1ccccc1OCc1ccc(C(=O)NC(C)(C)C)o1 | 2.29%
62 | CCOc1ccccc1-n1c(CNc2ccc(F)cc2)nnc1SCC(=O)NCc1ccco1 | -35.8%
63 | Cc1cc2c(c(=O)n1CCc1ccccc1)C(c1ccco1)C(C#N)=C(N)O2 (stereo not drawn) | 0.227%
64 | CCOc1ccc(S(=O)(=O)Nc2cccc(C)c2)c2cccnc12 | 6.58%
65 | CC(Sc1ccccc1)C(=O)NCCc1ccccc1 (stereo not drawn) | 9.11%
66 | O=C(CC12CC3CC(CC(C3)C1)C2)NCO | 5.89%

Row | SMILES | hERG current change (%, negative = inhibition) at 10uM
67 | O=C(c1ccco1)N1CCN(CCOc2ccccc2)CC1 | 0.652%
68 | Cn1c(SCC(=O)c2ccc3c(c2)OCCO3)nnc1C1CC1 | 7.59%
69 | O=Cc1cn(-c2ccccc2)nc1-c1ccccc1 | 11.7%
70 | O=C(O)CC/C(=C\c1ccc2c(c1)OCO2)c1nc2ccccc2s1 | 7.43%
71 | CC(=O)Nc1ccc(/C=C2/Sc3ccccc3C2=O)cc1 | 30.8%
72 | COc1ccc(-n2c(Cc3cccn3C)nnc2SCC(=O)Nc2cccc(Cl)c2)cc1 | -28.6%
73 | Cc1ccc(NC(=O)C2CCN(C(=O)[C@@H]3Cc4ccccc4CN3)CC2)cc1 | -67.3%
74 | O=C(CNC(=O)c1ccccc1F)N/N=C/c1cccs1 | 14.7%
75 | Cc1noc(N)c1C(=O)Nc1ccc(C(C)(C)C)cc1 | -15%
76 | CC(C)c1c(C(=O)N/N=C/C=C/c2ccccc2)nnn1-c1nonc1N | 20.6%
77 | Cc1ccc(OCc2nnc(SCC(=O)C(C)(C)C)n2Cc2ccco2)cc1 | -38.9%
78 | CC(=O)N1c2ccc(S(=O)(=O)NCCC(=O)Nc3ccc(C)c(F)c3)cc2CC1C (stereo not drawn) | 3.97%
79 | CC(=O)c1ccc(N2CCN(S(=O)(=O)c3ccc(-c4cnc(C5CC5)o4)cc3)CC2)cc1 | -1.95%
80 | COc1cccc(-c2nnc(SCC(=O)N3CCCc4ccccc43)o2)c1 | -11.9%
81 | CC(Oc1ccccc1)C(=O)NC1CCCCCCC1 (stereo not drawn) | -2.77%
82 | O=C(Nc1cccc(-c2cn3ccsc3n2)c1)c1ccccc1 | -16.5%
83 | C/C(=N\NC(=O)c1ccco1)c1ccc(-c2ccccc2)cc1 | -2.72%
84 | COc1cc(F)ccc1S(=O)(=O)N1CCN(c2ccccc2)CC1 | -18.3%
85 | N/C(=N/OCC(=O)Nc1cccc2ccccc12)c1nonc1N | -14%
86 | CC(C)(C)N(NC(=O)Nc1ccccc1)C(=O)c1ccccc1 | 12.9%
87 | Cc1ccc(C)c(Oc2coc3cc(O)ccc3c2=O)c1 | -24.1%
